Our source for the cell count values is the supplement of paper PMC4604168 (melanoma cell lines).

Each structure is given as a SMILES string. This is one part of the list. Many values rest on one well or one pass, so single values are uncertain.
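Further: cells treated in 1,536-well plates, then fixed and DAPI-stained, with nuclei counted from automated high-throughput microscope images.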

This test concerns G361. The test is described as follows: cell count relative to DMSO control; melanoma cells; higher = more viable cells. The following applies: library dose: standard library concentration; 72 h.
For `Cc1cc(Nc2cc(N3CCN(C)CC3)nc(Sc3ccc(NC(=O)C4CC4)cc3)n2)n[nH]1` [Tozasertib] + CC(=O)O[C@@]12CO[C@@H]1C[C@H](O)[C@@]1(C)C(=O)[C@H](O)C3=C(C)[C@@H](OC(=O)[C@H](O)[C@@H](NC(=O)OC(C)(C)C)c4ccccc4)C[C@@](O)([C@@H](OC(=O)c4ccccc4)[C@H]21)C3(C)C [Docetaxel] (first compound 0.03 µM, partner dose 0.0005 µM), the cell count was 13%.

`CC[C@]1(O)C[C@H]2CN(CCc3c([nH]c4ccccc34)[C@@](C(=O)OC)(c3cc4c(cc3OC)N(C=O)[C@H]3[C@@](O)(C(=O)OC)[C@H](OC(C)=O)[C@]5(CC)C=CCN6CC[C@]43[C@@H]65)C2)C1` [vincristine] + Oc1nc(-c2ccc(C(F)(F)F)cc2)nc2c1CSCC2 [XAV939] (first compound 0.0005 µM, partner dose 10 µM) displayed a cell count of 80.6%.

For the molecule `CC[C@]1(O)C[C@H]2CN(CCc3c([nH]c4ccccc34)[C@@](C(=O)OC)(c3cc4c(cc3OC)N(C=O)[C@H]3[C@@](O)(C(=O)OC)[C@H](OC(C)=O)[C@]5(CC)C=CCN6CC[C@]43[C@@H]65)C2)C1` [vincristine] + c1cc(-c2cnn3cc(-c4ccc(OCCN5CCCCC5)cc4)cnc23)ccn1 [Dorsomorphin] (first compound 0.0005 µM, partner dose 2 µM), the cell count amounted to 18.4%.

With `Cc1cc(Nc2cc(N3CCN(C)CC3)nc(Sc3ccc(NC(=O)C4CC4)cc3)n2)n[nH]1` [Tozasertib] + COc1ccc(-c2ccc3c(N4CCOCC4)nc(N4C[C@@H](C)O[C@@H](C)C4)nc3n2)cc1CO [KU0063794] (first compound 0.03 µM, partner dose 0.1 µM), the cell count worked out at 76.9%.

Turning to `CC[C@]1(O)C[C@H]2CN(CCc3c([nH]c4ccccc34)[C@@](C(=O)OC)(c3cc4c(cc3OC)N(C=O)[C@H]3[C@@](O)(C(=O)OC)[C@H](OC(C)=O)[C@]5(CC)C=CCN6CC[C@]43[C@@H]65)C2)C1` [vincristine] + O=C(Nc1cc(C(F)(F)F)cc(C(F)(F)F)c1)c1cc(Cl)ccc1O [IMD0354] (first compound 0.0005 µM, partner dose 0.08 µM), the cell count was 118%.

The molecule `N#CC[C@H](C1CCCC1)n1cc(-c2ncnc3[nH]ccc23)cn1` [ruxolitinib] + Nc1cccc2c1CN(C1CCC(=O)NC1=O)C2=O [lenalidomide] (first compound 5 µM, partner dose 5 µM) returned a cell count of 107%.

As to `CC[C@]1(O)C[C@H]2CN(CCc3c([nH]c4ccccc34)[C@@](C(=O)OC)(c3cc4c(cc3OC)N(C=O)[C@H]3[C@@](O)(C(=O)OC)[C@H](OC(C)=O)[C@]5(CC)C=CCN6CC[C@]43[C@@H]65)C2)C1` [vincristine] + COCC[n+]1c2c(n(Cc3cnccn3)c1C)C(=O)c1ccccc1C2=O [YM155] (first compound 0.0005 µM, partner dose 0.002 µM), the cell count was 89.1%.

The molecule `Cc1cc(Nc2cc(N3CCN(C)CC3)nc(Sc3ccc(NC(=O)C4CC4)cc3)n2)n[nH]1` [Tozasertib] + O=C(CCCCCCC(=O)Nc1ccccc1)NO [vorinostat] (first compound 0.03 µM, partner dose 0.4 µM) displayed a cell count of 62.2%.

`N#CC[C@H](C1CCCC1)n1cc(-c2ncnc3[nH]ccc23)cn1` [ruxolitinib] + CN(c1ncccc1CNc1nc(Nc2ccc3c(c2)CC(=O)N3)ncc1C(F)(F)F)S(C)(=O)=O [PF562271] (first compound 5 µM, partner dose 0.4 µM) gave a cell count of 74.3%.

Consider `N#CC[C@H](C1CCCC1)n1cc(-c2ncnc3[nH]ccc23)cn1` [ruxolitinib] + CC(=O)O[C@@]12CO[C@@H]1C[C@H](O)[C@@]1(C)C(=O)[C@H](O)C3=C(C)[C@@H](OC(=O)[C@H](O)[C@@H](NC(=O)OC(C)(C)C)c4ccccc4)C[C@@](O)([C@@H](OC(=O)c4ccccc4)[C@H]21)C3(C)C [Docetaxel] (first compound 5 µM, partner dose 0.0005 µM), for which the cell count was 12.7%.

On to `N#CC[C@H](C1CCCC1)n1cc(-c2ncnc3[nH]ccc23)cn1` [ruxolitinib] + C=C(c1ccc(C(=O)O)cc1)c1cc2c(cc1C)C(C)(C)CCC2(C)C [Bexarotene] (first compound 5 µM, partner dose 10 µM), for which the cell count was 59.4%.

`CC[C@]1(O)C[C@H]2CN(CCc3c([nH]c4ccccc34)[C@@](C(=O)OC)(c3cc4c(cc3OC)N(C=O)[C@H]3[C@@](O)(C(=O)OC)[C@H](OC(C)=O)[C@]5(CC)C=CCN6CC[C@]43[C@@H]65)C2)C1` [vincristine] + O=S(=O)(c1ccccc1)N(CC(F)(F)F)c1ccc(C(O)(C(F)(F)F)C(F)(F)F)cc1 [T0901317] (first compound 0.0005 µM, partner dose 7 µM): the cell count was determined as 96.1%.

For `Cc1cc(Nc2cc(N3CCN(C)CC3)nc(Sc3ccc(NC(=O)C4CC4)cc3)n2)n[nH]1` [Tozasertib] + COc1ccc(C2=N[C@@H](c3ccc(Cl)cc3)[C@@H](c3ccc(Cl)cc3)N2C(=O)N2CCNC(=O)C2)c(OC(C)C)c1 [Nutlin-3] (first compound 0.03 µM, partner dose 0.5 µM), the cell count came out at 62.2%.

As for `CC[C@]1(O)C[C@H]2CN(CCc3c([nH]c4ccccc34)[C@@](C(=O)OC)(c3cc4c(cc3OC)N(C=O)[C@H]3[C@@](O)(C(=O)OC)[C@H](OC(C)=O)[C@]5(CC)C=CCN6CC[C@]43[C@@H]65)C2)C1` [vincristine] + CS(=O)(=O)c1ccc(C(=O)Nc2ccc(Cl)c(-c3ccccn3)c2)c(Cl)c1 [vismodegib] (first compound 0.0005 µM, partner dose 5 µM), the cell count stood at 69.5%.

`CC[C@]1(O)C[C@H]2CN(CCc3c([nH]c4ccccc34)[C@@](C(=O)OC)(c3cc4c(cc3OC)N(C=O)[C@H]3[C@@](O)(C(=O)OC)[C@H](OC(C)=O)[C@]5(CC)C=CCN6CC[C@]43[C@@H]65)C2)C1` [vincristine] + C#Cc1cccc(Nc2ncnc3cc(OCCOC)c(OCCOC)cc23)c1 [erlotinib] (first compound 0.0005 µM, partner dose 4 µM): the cell count worked out at 16.3%.

Turning to `Cc1cc(Nc2cc(N3CCN(C)CC3)nc(Sc3ccc(NC(=O)C4CC4)cc3)n2)n[nH]1` [Tozasertib] + Cc1cn(-c2cc(NC(=O)c3ccc(C)c(Nc4nccc(-c5cccnc5)n4)c3)cc(C(F)(F)F)c2)cn1 [nilotinib] (first compound 0.03 µM, partner dose 1 µM), the cell count was determined as 75.4%.

In the case of `Cc1cc(Nc2cc(N3CCN(C)CC3)nc(Sc3ccc(NC(=O)C4CC4)cc3)n2)n[nH]1` [Tozasertib] + O=C(O)C(=O)Nc1sc2c(c1C(=O)O)CCNC2 [TCS401] (first compound 0.03 µM, partner dose 8.33333 µM), the cell count turned out to be 94.5%.

Molecule `Cc1cc(Nc2cc(N3CCN(C)CC3)nc(Sc3ccc(NC(=O)C4CC4)cc3)n2)n[nH]1` [Tozasertib] + O=S(=O)(c1ccccc1)N(CC(F)(F)F)c1ccc(C(O)(C(F)(F)F)C(F)(F)F)cc1 [T0901317] (first compound 0.03 µM, partner dose 7 µM) gave a cell count of 55.2%.

`CC[C@]1(O)C[C@H]2CN(CCc3c([nH]c4ccccc34)[C@@](C(=O)OC)(c3cc4c(cc3OC)N(C=O)[C@H]3[C@@](O)(C(=O)OC)[C@H](OC(C)=O)[C@]5(CC)C=CCN6CC[C@]43[C@@H]65)C2)C1` [vincristine] + O=C(/C=C/c1cccnc1)NCCCCC1CCN(C(=O)c2ccccc2)CC1 [FK866] (first compound 0.0005 µM, partner dose 0.05 µM): the cell count was determined as 6.17%.

Consider `Cc1cc(Nc2cc(N3CCN(C)CC3)nc(Sc3ccc(NC(=O)C4CC4)cc3)n2)n[nH]1` [Tozasertib] + OCCn1cc(-c2cnc3nnn(Cc4ccc5ncccc5c4)c3n2)cn1 [PF04217903] (first compound 0.03 µM, partner dose 5 µM), for which the cell count was 75.5%.

In turn, `CC[C@]1(O)C[C@H]2CN(CCc3c([nH]c4ccccc34)[C@@](C(=O)OC)(c3cc4c(cc3OC)N(C=O)[C@H]3[C@@](O)(C(=O)OC)[C@H](OC(C)=O)[C@]5(CC)C=CCN6CC[C@]43[C@@H]65)C2)C1` [vincristine] + C[C@@H]1CCN(C(=O)CC#N)C[C@@H]1N(C)c1ncnc2[nH]ccc12 [CP690550] (first compound 0.0005 µM, partner dose 5 µM) returned a cell count of 96.8%.

As for `Cc1cc(Nc2cc(N3CCN(C)CC3)nc(Sc3ccc(NC(=O)C4CC4)cc3)n2)n[nH]1` [Tozasertib] + CCCCCCCCCCCCCCCCCCOP(=O)([O-])OC1CC[N+](C)(C)CC1 [Perifosine] (first compound 0.03 µM, partner dose 2 µM), the cell count was determined as 79.7%.

The molecule `CC[C@]1(O)C[C@H]2CN(CCc3c([nH]c4ccccc34)[C@@](C(=O)OC)(c3cc4c(cc3OC)N(C=O)[C@H]3[C@@](O)(C(=O)OC)[C@H](OC(C)=O)[C@]5(CC)C=CCN6CC[C@]43[C@@H]65)C2)C1` [vincristine] + CCCS(=O)(=O)Nc1ccc(F)c(C(=O)c2c[nH]c3ncc(Cl)cc23)c1F [PLX4720] (first compound 0.0005 µM, partner dose 0.4 µM) came in with a cell count of 63.6%.

`Cc1cc(Nc2cc(N3CCN(C)CC3)nc(Sc3ccc(NC(=O)C4CC4)cc3)n2)n[nH]1` [Tozasertib] + Cc1nc(Nc2ncc(C(=O)Nc3c(C)cccc3Cl)s2)cc(N2CCN(CCO)CC2)n1 [dasatanib] (first compound 0.03 µM, partner dose 0.02 µM) yielded a cell count of 61.8%.
